Test results: article PMC4336329 (PLoS ONE, 2015)
Screen size: about 310,000 compounds; about 2,200 (0.71%) showed an effect of 50% or more. Effects have a minus sign here. Some of the results follow.

Target: human ether-à-go-go-related gene (hERG) potassium channel (human, UniProt Q12809)
Experiment: primary screen, population patch clamp on CHO cells stably expressing hERG

Chain of human ether-à-go-go-related gene (hERG) potassium channel (Q12809 whole entry, looked up): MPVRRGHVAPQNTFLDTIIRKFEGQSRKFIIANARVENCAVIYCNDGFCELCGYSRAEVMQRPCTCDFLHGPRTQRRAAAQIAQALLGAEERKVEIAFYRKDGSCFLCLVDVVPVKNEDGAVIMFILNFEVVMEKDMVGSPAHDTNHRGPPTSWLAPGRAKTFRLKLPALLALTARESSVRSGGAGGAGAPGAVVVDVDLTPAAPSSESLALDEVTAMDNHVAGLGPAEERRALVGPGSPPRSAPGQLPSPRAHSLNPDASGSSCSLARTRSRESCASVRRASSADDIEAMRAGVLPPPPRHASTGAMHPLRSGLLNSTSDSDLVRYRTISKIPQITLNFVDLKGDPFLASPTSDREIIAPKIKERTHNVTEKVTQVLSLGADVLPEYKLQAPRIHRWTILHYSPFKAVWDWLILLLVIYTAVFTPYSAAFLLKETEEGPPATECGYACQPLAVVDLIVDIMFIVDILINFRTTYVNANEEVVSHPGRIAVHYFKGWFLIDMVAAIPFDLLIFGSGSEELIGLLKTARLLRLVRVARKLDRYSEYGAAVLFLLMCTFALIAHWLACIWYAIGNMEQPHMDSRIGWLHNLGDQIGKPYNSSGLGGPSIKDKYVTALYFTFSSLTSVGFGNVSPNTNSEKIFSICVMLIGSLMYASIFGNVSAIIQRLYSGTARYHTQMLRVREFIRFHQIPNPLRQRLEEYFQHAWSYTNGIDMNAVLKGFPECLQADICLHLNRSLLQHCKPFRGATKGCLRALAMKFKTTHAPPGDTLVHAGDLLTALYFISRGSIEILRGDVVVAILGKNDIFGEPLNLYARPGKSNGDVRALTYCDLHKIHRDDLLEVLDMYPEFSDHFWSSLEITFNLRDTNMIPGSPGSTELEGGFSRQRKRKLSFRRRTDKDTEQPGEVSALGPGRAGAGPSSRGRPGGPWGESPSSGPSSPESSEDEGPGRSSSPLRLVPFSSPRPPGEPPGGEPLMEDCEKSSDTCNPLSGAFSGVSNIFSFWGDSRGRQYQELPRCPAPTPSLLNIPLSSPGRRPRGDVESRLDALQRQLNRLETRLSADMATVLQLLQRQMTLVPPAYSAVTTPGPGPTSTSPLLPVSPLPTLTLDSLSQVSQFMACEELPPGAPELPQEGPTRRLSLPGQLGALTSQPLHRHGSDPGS

SMILES	hERG current change (%, negative = inhibition) at 1uM [%]
Cc1nc(SCC(=O)Nc2ccccc2)c2oc3ccccc3c2n1	13.3
O=C(NCC1([N+](=O)[O-])CN(C(=O)c2ccccc2)CN(C(=O)c2ccccc2)C1)c1ccccc1	8.76
CC(C)(C)OC(=O)N1CCC(NC(=O)c2[nH]cnc2C(=O)N[C@@H](Cc2ccccc2)C(=O)OCc2ccccc2)CC1	14.6
Cc1cc(C)c(S(=O)(=O)c2ccc(Cl)cc2)c(=O)[nH]1	9.23
CCOc1cc(/C=N/N=C(\N)c2nonc2N)cc(Br)c1OCc1cccc2ccccc12	16.5
COc1cccc(CNS(=O)(=O)c2ccc3c(c2)CCN3C(=O)C2CC2)c1	5.68
Cc1cc(=O)oc2c(C)c(OC(C)C(=O)NCCCn3ccnc3)ccc12 (stereo not drawn)	3.87
NNC(=O)[C@H]1C[C@@H]1c1ccccc1	6.36
O=C(O)c1ccc(CS(=O)c2cccc(C(F)(F)F)c2)o1 (stereo not drawn)	-12.2
CC(O)Cc1cn([C@@H](CCCCN)C(=O)N2CCNCC2)nn1.Cl (stereo partly drawn)	6.64
COc1ccc(C(=O)NC(=S)N2CCOCC2)cc1OC	2.16
N=C1/C(=C\c2ccc(OC(=O)c3ccco3)cc2)C(=O)N=C2SC(N3CCCCC3)=NN12	18.1
CCC(C)NC(=O)c1cn(-c2cccc(C)n2)cn1 (stereo not drawn)	-6.25
C=CCn1c(=O)c(C(=O)OCC)c(O)c2ccccc21	11.1
CCOC(=O)CCC(=O)Nc1ccc(S(=O)(=O)N2CCCC2)cc1	6.81
Cn1c(C2CCCCC2)nc2c1c(=O)[nH]c(=O)n2Cc1ccccc1	2.82
COc1ccc(OCc2nnc(SCC(=O)Nc3ccc(C)cc3)o2)cc1	17.6
COc1ccc(NC(=O)c2ccccc2NC(=O)COc2ccccc2)cc1	-0.175
FC(F)(F)C1CCCN(c2nsc3ccccc23)C1 (stereo not drawn)	19.8
CCOc1ccc2nc(NC(=O)Nc3ccccc3)sc2c1	4.57
O=C(O)COCC(=O)N1CCc2c([nH]c3ccccc23)C1C(F)(F)F (stereo not drawn)	15.2
CCCn1c(=O)[nH]c(=O)c2c1nc(-c1ccccc1OC(F)F)n2CCOC	12.2
CC(C)(CO)NCC(=O)Nc1cc(C(F)(F)F)cc(NC(=O)CNC(C)(C)CO)c1Cl	14.6
CCc1cc(C(=O)Nc2ncccc2O)sc1C	6.02
